# Measurements as given in the supplement of paper PMC3334620.
# Over roughly 33,000 sequences, “E-score (-0.5 to 0.5)” has its median near -0.016; the highest 2% begin near 0.31. The list shows a part of the results.
# Target: Cst6 (UniProt P40535)
# Experiment: PBM E-score (8-mer binding enrichment) (E-score (-0.5 to 0.5)); higher = stronger / more preferred TF binding; most listed sequences are background and not binding sites
# Conditions: protein concentration: 200 nM; construct: GST-DNA-binding domain
# Method in brief: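 GST-tagged yeast TFs (full-length or DNA-binding domain) were made by PURExpress in vitro transcription/translation and applied at about 100-200 nM to universal all-10-mer Agilent arrays. The arrays were made double-stranded by primer extension, on fresh or once-stripped slides. Bound protein was detected with fluorescent anti-GST, and scans were normalised with masliner. Each ungapped eight-base word, pooled with its reverse complement, received an E-score (modified Wilcoxon-Mann-Whitney statistic) from the Universal PBM Analysis Suite.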
row,Sequence,PBM E-score
1,GGTAAAAA,0.227
2,GCTAAAGA,0.127
3,TCTGATAA,0.0469
4,TATCCAAA,0.121
5,AAGGACAC,-0.0911
6,ACTGTCGC,-0.277
7,CACGCGGC,0.279
8,CAATACTC,0.0606
9,ATGAGCTC,0.12
10,CGATGGGC,-0.128
11,CTCTGTTC,-0.179
12,CTAGAAAA,0.0743
13,GCTCCAGC,-0.0194
14,AGTCGTAA,0.0707
15,GCCACGGC,0.198
16,GGGAGCAA,-0.289
17,GAAGCTCC,-0.23
18,CCCAAGCA,-0.00848
19,CATACAGC,-0.183
20,GCGCGTGA,0.186
21,AAAACCAC,0.0384
22,GGGTACAC,-0.146

row,Sequence,PBM E-score
1,CTCCATAC,-0.0429
2,ACACTAGG,-0.103
3,GACGCTTA,0.0361
4,GGCACGGA,0.0941
5,CCTCTCTA,-0.258
6,CTCTTGTA,-0.0608
7,CCAAGTAA,0.175
8,GTGCCCAC,-0.116
9,CTTTTAGA,0.0486
10,GACGAGTA,0.0509
11,AGAGTTAT,-0.0852
12,GACACAGC,0.0701
13,CCCCCGCC,-0.401
14,CTTACGGC,-0.0643
15,AAACCGGA,-0.0394
16,AACCTTTA,-0.0947
17,CCGTCCTC,-0.226
18,GCTTTGCA,-0.261
19,CTGGCGCA,-0.212
20,AACACCCC,-0.2
21,CACCCGCC,0.136
22,CGGGAAGC,-0.185

row,Sequence,PBM E-score
1,GGAACTAC,-0.0942
2,GAAAAACA,0.0134
3,CCCTGGCA,-0.22
4,TAGGAGGA,-0.0406
5,ACCTCAAA,0.128
6,ACTTACGA,0.224
7,AGGGTGGA,-0.262
8,ATAGTATG,0.111
9,ATAACCTC,0.0519
10,CAGTGTAG,0.0008
11,AAGACACA,0.0934
12,GTCCCGAA,-0.352
13,AAATATCT,0.0489
14,CAGCATGA,0.0354
15,ACCGGGTA,-0.051
16,GCTCACAA,0.217
17,ATATATAT,0.294
18,ATATCAAC,0.129
19,CGTCCAAC,-0.0323
20,CTAGGCTC,-0.149
21,ACCGCGTG,-0.182
22,CGATGTCA,0.319

row,Sequence,PBM E-score
1,AACGCTAG,-0.224
2,CCATCATC,0.146
3,ACGTCTCT,-0.028
4,AGAACGAG,0.117
5,TCCAGGCA,-0.0535
6,CCTATTCG,-0.218
7,CTCTGATA,0.0422
8,CGCGCAGC,-0.0832
9,ACTCGGTA,-0.0364
10,AAGATCAG,-0.125
11,TAGCCCTA,-0.181
12,CTGTGTCC,-0.113
13,CTTTTCTC,0.0528
14,ACTCTAGC,-0.199
15,GAGCACGC,-0.191
16,AAAGTCGA,-0.151
17,AACACGCT,-0.0524
18,AATCATAC,0.239
19,ACCGTCTA,-0.309
20,ATCCCCAA,0.0131
